Screen size: about 310,000 compounds; about 14,000 (4.5%) showed an effect of 50% or more. Effects have a minus sign here. This is one part of the list.
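Also: peak tail current of the secondary pulse compared with the same well before compound.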

human ether-à-go-go-related gene (hERG) potassium channel, sequence (Q12809 whole entry, looked up): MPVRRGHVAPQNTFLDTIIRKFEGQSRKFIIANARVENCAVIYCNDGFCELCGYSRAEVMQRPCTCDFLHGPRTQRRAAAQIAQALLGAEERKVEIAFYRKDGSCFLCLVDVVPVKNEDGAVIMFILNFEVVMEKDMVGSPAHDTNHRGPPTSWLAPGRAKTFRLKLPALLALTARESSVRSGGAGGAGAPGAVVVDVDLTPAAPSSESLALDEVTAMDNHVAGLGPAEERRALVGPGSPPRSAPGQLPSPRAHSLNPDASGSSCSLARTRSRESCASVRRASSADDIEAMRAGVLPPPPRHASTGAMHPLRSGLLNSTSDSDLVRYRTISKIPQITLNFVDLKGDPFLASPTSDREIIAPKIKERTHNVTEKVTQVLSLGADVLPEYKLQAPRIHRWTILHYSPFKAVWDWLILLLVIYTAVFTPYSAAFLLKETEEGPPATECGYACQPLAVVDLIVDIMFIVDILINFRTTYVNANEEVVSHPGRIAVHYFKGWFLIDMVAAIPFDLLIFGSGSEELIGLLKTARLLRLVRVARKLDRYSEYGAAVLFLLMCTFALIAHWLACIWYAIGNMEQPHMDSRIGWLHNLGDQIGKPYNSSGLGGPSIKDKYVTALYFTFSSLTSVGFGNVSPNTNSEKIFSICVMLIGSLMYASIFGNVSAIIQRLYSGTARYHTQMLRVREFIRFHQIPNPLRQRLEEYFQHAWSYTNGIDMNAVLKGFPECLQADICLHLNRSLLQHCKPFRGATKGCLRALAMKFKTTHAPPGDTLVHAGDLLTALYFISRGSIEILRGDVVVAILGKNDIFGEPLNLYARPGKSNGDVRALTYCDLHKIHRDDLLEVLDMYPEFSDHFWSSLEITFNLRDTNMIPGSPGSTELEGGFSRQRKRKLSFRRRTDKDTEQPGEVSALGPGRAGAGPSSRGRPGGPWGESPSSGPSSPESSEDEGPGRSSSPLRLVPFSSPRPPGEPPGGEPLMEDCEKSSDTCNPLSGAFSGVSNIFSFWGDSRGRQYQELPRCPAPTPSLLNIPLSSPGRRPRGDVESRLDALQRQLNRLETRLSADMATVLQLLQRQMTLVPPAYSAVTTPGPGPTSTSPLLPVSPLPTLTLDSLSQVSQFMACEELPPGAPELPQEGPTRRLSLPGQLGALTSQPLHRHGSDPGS

The assay addresses human ether-à-go-go-related gene (hERG) potassium channel (human, UniProt Q12809). Nature of the assay: primary screen, population patch clamp on CHO cells stably expressing hERG.
As for `CC(=O)Oc1ccc(OC(C)=O)c(S(=O)(=O)c2ccc(C)c(C)c2)c1`, the “hERG current change (%, negative = inhibition) at 10uM” value was determined as 10.9%.

With `CSc1nn2c(C(F)(F)F)cc(C(F)(F)F)nc2c1C(N)=O`, the “hERG current change (%, negative = inhibition) at 10uM” value was 7.24%.

For `CCc1c(C)sc(NC(=O)CCc2ccc(OC)cc2)c1C(N)=O`, the “hERG current change (%, negative = inhibition) at 10uM” value was found to be 20.8%.

With `CCCc1cc2c(cc1NS(=O)(=O)c1ccc(CCNC(C)=O)cc1)OCO2`, the “hERG current change (%, negative = inhibition) at 10uM” value is on record as -63%.

Consider `CCc1ccc(OCC(O)CN2CCN(c3ccc(OC)cc3)CC2)cc1.Cl` (stereo not shown), for which the “hERG current change (%, negative = inhibition) at 10uM” value was -49.3%.

For the compound `COc1ccc(Nc2nccc(-c3cccc(N)c3)n2)cc1`, the “hERG current change (%, negative = inhibition) at 10uM” value was found to be 3.8%.

Consider `COc1ccccc1CNS(=O)(=O)c1ccc2c(c1)NC(=O)CS2`, for which the “hERG current change (%, negative = inhibition) at 10uM” value is listed as -1.59%.

For the compound `Cc1sc2ncnc(N(C)Cc3cccs3)c2c1C`, the “hERG current change (%, negative = inhibition) at 10uM” value is reported as -53%.

For the compound `O=C(Nc1ccc2nccnc2c1)c1ccco1`, the “hERG current change (%, negative = inhibition) at 10uM” value amounted to 11.3%.

Turning to `Cc1cc(C)c2c(CC(=O)O)c(C)[nH]c2c1`, the “hERG current change (%, negative = inhibition) at 10uM” value was 13.1%.

In the case of `C/C(CC(=O)Nc1cc(Cl)ccc1Cl)=N\NC(=O)c1ccco1`, the “hERG current change (%, negative = inhibition) at 10uM” value is on record as -6.6%.

Regarding `CCOC(=O)c1c(C)[nH]c(C(=O)COC(=O)c2ccc(O)cc2O)c1C.CN(C)C=O`, the “hERG current change (%, negative = inhibition) at 10uM” value is reported as 18.3%.

For `COC(=O)CSc1nccc(-c2ccc(F)cc2)c1C#N`, the “hERG current change (%, negative = inhibition) at 10uM” value was determined as 9.95%.

With `Cc1ccc(S(=O)(=O)N(C)c2c(C)ccc(S(=O)(=O)N3CCN(C=O)CC3)c2C)cc1`, the “hERG current change (%, negative = inhibition) at 10uM” value is -42.8%.

As to `COC(=O)c1cc(S(=O)(=O)NCCCN2CCCC2=O)cn1C`, the “hERG current change (%, negative = inhibition) at 10uM” value was found to be 10.7%.

As to `COc1ccc(CC(=O)Nc2nc(-c3ccc(F)c(F)c3)cs2)cc1OC`, the “hERG current change (%, negative = inhibition) at 10uM” value is -8.09%.

For `Cc1cc(C(=O)OCC(=O)N2CC(=O)Nc3ccccc32)c(C)n1-c1ccc(F)cc1`, the “hERG current change (%, negative = inhibition) at 10uM” value is reported as -15.4%.

As to `Cc1onc(C(=O)Nc2cccnc2Cl)c1[N+](=O)[O-]`, the “hERG current change (%, negative = inhibition) at 10uM” value worked out at 17%.

Take `O=C(c1cc2ccccc2oc1=O)N(c1ccc(Cl)cc1)C1C=CS(=O)(=O)C1` (stereo not shown): the “hERG current change (%, negative = inhibition) at 10uM” value is -6.18%.

`CCCCc1cn(C[C@H]2CC[C@@H]([C@@H]3CC[C@H](Cn4cc(CCCC)nn4)O3)O2)nn1`: the “hERG current change (%, negative = inhibition) at 10uM” value is recorded as -54.9%.

Take `Cc1cc(NC(=O)c2ccc([N+](=O)[O-])cc2Cl)no1`: the “hERG current change (%, negative = inhibition) at 10uM” value turned out to be 9.18%.

Take `CCCCN(CCCC)CC(O)COc1ccccc1C(=O)Nc1ccccc1` (stereo not shown): the “hERG current change (%, negative = inhibition) at 10uM” value is listed as -98.7%.

As to `CC1=NN(C(N)=S)C(=O)C1N=Nc1ccc(Br)cc1` (stereo not shown), the “hERG current change (%, negative = inhibition) at 10uM” value was determined as 16.6%.

As to `CC1=Nc2cc([N+](=O)[O-])ccc2NC(C)(C)C1`, the “hERG current change (%, negative = inhibition) at 10uM” value is -24%.

For the compound `CN(C)/C(CN1CCCCC1)=C1\N=C(c2ccccc2)OC1=O`, the “hERG current change (%, negative = inhibition) at 10uM” value was -36%.

For `COc1ccc(-c2nnc(SCC(=O)Nc3cc(C)on3)n2N)cc1OC`, the “hERG current change (%, negative = inhibition) at 10uM” value is listed as 20.2%.

Consider `CN(C)/C=C(\C#N)S(=O)(=O)C(C)(C)C`, for which the “hERG current change (%, negative = inhibition) at 10uM” value was 12.8%.

For the compound `CCN(CC)CCN1C(=O)c2oc3ccccc3c(=O)c2C1c1cccc(Br)c1` (stereo not shown), the “hERG current change (%, negative = inhibition) at 10uM” value is -44.2%.

`O=C(O)C1Sc2[nH]c(=O)sc2C2c3cc(Br)ccc3OC(=O)C12` (stereo not shown): the “hERG current change (%, negative = inhibition) at 10uM” value turned out to be 16.7%.

On to `COc1ccc(NC(=O)CN(c2cccc(F)c2)S(C)(=O)=O)cc1OC`, for which the “hERG current change (%, negative = inhibition) at 10uM” value worked out at 6.14%.

As to `COc1cc(NC(=O)C2CCN(S(=O)(=O)c3ccc4[nH]c(=O)oc4c3)CC2)cc(OC)c1`, the “hERG current change (%, negative = inhibition) at 10uM” value is on record as 15.2%.

As to `CCOc1ncccc1C(=O)Nc1ncc(C)s1`, the “hERG current change (%, negative = inhibition) at 10uM” value came to 18.6%.

Consider `O=P(Oc1ccccc1)(Oc1ccccc1)C(O)c1ccccc1` (stereo not shown), for which the “hERG current change (%, negative = inhibition) at 10uM” value is listed as 1.19%.

As to `CCCCCCCN1C/C=C\C(c2ccc(OC)cc2)N(Cc2ccc(F)cc2)C(=O)[C@H]1Cc1ccccc1` (stereo partly shown), the “hERG current change (%, negative = inhibition) at 10uM” value was found to be 8.55%.

Regarding `COCCNC(=O)COC(=O)c1ccc(OCC(=O)Nc2ccccc2OC)c(OC)c1`, the “hERG current change (%, negative = inhibition) at 10uM” value is 7.77%.

For the compound `O=C(CN1C(=O)/C(=C/c2ccccc2)SC1=S)NC1C=CS(=O)(=O)C1` (stereo not shown), the “hERG current change (%, negative = inhibition) at 10uM” value came out at 16.5%.

On to `CCOC(=O)c1c(C)nc2sc(C(=O)Nc3ccc(OC)cc3)c(N)c2c1-c1ccc(OC)cc1`, for which the “hERG current change (%, negative = inhibition) at 10uM” value turned out to be 4.12%.

Consider `CCCN(CCO)Cc1cccc(Br)c1`, for which the “hERG current change (%, negative = inhibition) at 10uM” value was -0.752%.

As to `CC(=O)Nc1ccc(NC(=O)c2nc(S(=O)(=O)Cc3ccccc3)ncc2Cl)cc1`, the “hERG current change (%, negative = inhibition) at 10uM” value came to 15.4%.

Take `CCOC(=O)c1oc2cccc(OCC(O)CNC(C)C)c2c1C.Cl` (stereo not shown): the “hERG current change (%, negative = inhibition) at 10uM” value was -19.2%.

On to `CSc1nc(C)cc(SCCO)n1`, for which the “hERG current change (%, negative = inhibition) at 10uM” value is listed as 1.95%.

Regarding `NS(=O)(=O)c1ccc(CCNC(=O)C2CCN(S(=O)(=O)c3cccc4cccnc34)CC2)cc1`, the “hERG current change (%, negative = inhibition) at 10uM” value is on record as -2.52%.

Take `COc1ccc(NC(=O)c2cc(SC)ccc2Cl)cc1`: the “hERG current change (%, negative = inhibition) at 10uM” value is on record as 12%.
